These results are taken from PMC5605756.

Chains of the proteins cited; added tags and fusions are not shown. Lines headed by an entry give the natural chain unless they say otherwise; changes in a name come on top. A line that says so, or that is headed by a name, gives the form on record, which may keep a tag or linker. Residues count along the entry.
UniProt Q00175: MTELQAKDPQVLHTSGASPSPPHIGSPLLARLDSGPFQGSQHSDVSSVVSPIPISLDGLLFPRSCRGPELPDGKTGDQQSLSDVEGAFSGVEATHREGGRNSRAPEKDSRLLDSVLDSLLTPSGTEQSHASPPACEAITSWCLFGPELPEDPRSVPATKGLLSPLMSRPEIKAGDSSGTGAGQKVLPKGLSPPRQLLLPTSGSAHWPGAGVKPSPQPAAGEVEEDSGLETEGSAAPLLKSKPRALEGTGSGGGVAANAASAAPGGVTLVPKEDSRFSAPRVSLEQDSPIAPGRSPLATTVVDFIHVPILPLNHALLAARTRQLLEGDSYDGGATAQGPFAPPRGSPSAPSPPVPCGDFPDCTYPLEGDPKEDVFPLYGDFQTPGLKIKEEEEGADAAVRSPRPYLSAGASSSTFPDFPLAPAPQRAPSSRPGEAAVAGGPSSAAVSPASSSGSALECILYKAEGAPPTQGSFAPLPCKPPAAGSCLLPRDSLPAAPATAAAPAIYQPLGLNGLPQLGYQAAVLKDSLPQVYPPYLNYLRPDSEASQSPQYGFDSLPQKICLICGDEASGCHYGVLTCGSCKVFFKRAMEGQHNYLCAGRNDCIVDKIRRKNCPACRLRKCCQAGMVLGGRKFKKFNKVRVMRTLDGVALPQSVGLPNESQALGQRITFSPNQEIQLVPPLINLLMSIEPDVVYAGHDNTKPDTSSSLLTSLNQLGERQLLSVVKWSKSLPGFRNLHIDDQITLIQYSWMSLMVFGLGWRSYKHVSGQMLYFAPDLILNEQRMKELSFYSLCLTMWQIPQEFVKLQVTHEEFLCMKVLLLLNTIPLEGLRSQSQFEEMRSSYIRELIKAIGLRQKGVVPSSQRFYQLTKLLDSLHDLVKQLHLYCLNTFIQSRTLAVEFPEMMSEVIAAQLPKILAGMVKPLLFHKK
UniProt Q9CQY1: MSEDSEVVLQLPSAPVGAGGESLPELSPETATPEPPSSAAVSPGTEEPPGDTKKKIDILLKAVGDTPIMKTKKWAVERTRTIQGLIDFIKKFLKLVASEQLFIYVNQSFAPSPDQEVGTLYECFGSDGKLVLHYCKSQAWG
UniProt Q9CPX6: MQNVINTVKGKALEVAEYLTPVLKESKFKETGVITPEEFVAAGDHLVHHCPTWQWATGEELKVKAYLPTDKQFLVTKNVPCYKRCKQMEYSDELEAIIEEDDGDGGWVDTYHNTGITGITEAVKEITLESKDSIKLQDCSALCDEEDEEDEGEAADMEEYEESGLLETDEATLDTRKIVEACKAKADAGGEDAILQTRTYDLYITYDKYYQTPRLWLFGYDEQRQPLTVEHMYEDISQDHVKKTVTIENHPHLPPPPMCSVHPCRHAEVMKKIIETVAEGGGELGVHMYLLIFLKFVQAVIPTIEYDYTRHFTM
UniProt Q9R1E0: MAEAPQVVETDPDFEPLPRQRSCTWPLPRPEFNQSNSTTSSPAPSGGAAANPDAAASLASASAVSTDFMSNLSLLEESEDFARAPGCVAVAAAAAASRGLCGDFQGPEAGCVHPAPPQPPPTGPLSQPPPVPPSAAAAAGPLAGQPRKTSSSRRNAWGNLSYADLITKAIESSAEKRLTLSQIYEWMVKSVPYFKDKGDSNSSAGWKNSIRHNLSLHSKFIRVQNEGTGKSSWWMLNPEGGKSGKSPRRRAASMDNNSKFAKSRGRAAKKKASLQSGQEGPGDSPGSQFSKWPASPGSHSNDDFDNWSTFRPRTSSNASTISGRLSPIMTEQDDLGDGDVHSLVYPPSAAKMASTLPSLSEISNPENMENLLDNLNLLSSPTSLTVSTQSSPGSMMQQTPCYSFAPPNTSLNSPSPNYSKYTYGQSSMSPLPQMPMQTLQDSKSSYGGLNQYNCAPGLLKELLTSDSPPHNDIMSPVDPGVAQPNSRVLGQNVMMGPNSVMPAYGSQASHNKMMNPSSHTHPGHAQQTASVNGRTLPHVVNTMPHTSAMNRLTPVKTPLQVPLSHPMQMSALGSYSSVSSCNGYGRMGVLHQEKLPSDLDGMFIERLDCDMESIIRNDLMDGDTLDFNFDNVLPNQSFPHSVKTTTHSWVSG
UniProt P11688, residues 45-1053: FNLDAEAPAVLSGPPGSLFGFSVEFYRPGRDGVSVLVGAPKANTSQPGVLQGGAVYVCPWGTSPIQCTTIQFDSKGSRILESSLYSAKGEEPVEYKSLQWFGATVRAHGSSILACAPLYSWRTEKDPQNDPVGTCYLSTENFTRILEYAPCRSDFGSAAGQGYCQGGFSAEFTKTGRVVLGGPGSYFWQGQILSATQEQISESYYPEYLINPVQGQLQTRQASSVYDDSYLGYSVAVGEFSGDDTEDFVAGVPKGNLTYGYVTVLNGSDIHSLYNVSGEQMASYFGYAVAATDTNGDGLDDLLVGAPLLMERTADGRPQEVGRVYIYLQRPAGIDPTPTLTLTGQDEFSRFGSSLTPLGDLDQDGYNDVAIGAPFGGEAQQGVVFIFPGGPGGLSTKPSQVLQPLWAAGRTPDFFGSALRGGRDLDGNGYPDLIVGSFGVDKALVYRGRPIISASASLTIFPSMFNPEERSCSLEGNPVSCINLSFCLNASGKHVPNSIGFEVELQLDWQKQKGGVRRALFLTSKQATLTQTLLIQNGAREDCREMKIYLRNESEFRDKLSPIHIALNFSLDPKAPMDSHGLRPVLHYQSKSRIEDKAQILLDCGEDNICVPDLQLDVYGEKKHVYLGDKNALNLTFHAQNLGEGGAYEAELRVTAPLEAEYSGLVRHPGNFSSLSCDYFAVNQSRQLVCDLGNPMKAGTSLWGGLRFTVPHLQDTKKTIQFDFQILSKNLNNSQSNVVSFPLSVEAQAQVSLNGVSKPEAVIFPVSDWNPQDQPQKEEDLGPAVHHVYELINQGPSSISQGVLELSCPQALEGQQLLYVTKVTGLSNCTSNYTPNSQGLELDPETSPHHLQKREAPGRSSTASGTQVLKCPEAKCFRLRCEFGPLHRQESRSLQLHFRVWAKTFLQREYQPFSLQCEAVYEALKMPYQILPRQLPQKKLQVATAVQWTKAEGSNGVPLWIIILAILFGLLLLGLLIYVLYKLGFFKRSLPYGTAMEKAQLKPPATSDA
UniProt P70365: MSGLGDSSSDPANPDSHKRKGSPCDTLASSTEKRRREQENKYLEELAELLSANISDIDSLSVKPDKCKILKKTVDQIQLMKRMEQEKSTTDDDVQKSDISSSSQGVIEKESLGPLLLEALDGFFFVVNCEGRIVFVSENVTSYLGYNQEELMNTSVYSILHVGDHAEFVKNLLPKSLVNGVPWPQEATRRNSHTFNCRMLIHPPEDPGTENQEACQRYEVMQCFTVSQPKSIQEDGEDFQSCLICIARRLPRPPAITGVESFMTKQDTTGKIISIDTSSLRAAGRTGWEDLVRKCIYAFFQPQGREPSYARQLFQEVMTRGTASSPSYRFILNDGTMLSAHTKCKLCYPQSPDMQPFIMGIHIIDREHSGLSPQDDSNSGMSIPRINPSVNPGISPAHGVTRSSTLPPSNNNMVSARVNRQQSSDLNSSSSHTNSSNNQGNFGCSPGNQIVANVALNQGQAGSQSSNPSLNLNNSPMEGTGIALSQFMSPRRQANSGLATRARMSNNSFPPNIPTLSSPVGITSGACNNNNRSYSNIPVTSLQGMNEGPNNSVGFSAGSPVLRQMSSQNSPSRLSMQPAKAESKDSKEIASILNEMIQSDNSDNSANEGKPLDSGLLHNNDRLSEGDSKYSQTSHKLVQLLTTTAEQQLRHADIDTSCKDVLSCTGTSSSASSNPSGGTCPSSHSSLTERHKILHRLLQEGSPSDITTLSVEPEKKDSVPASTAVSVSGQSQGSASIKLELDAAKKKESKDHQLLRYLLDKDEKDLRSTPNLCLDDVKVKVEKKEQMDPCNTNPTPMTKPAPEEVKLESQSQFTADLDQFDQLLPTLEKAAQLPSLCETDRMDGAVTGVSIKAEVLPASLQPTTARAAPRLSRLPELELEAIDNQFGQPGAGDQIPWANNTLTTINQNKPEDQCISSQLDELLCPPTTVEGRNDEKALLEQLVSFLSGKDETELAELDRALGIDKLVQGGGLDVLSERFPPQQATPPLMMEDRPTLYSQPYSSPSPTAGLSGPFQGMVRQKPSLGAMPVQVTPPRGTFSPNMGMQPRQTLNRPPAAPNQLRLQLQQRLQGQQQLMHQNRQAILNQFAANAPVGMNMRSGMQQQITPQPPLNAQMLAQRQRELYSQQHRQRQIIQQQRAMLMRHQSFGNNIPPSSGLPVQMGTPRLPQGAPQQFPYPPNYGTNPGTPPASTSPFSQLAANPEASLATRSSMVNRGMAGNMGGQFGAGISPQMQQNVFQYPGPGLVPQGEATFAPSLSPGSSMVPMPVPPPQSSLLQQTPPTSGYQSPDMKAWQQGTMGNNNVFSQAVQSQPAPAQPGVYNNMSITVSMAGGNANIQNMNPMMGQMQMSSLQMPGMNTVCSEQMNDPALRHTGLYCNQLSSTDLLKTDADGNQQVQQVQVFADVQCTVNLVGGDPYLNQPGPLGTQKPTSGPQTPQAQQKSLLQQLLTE
synapsin-IIb (Q64332-2, form named): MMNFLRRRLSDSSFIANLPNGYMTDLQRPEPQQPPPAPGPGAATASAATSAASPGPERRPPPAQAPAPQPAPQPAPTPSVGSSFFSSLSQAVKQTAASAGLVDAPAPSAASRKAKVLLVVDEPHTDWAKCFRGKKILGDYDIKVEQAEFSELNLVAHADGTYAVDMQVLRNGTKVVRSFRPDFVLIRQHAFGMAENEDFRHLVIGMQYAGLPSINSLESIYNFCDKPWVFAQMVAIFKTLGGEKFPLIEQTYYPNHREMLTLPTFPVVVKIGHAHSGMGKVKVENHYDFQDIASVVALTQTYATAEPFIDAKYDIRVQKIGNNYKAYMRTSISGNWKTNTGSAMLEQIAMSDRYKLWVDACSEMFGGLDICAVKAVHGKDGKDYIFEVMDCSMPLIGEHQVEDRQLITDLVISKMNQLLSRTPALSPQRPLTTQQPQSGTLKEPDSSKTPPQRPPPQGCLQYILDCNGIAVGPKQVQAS

Test [1] concerns the target glutathione S-transferase-tagged mouse progestin receptor PR-B (mouse) (UniProt Q00175). Description: pull-down; GST-PRA or GST-PRB bound to R5020, immobilised on glutathione Sepharose 4B, incubated 1 h at 4°C with pooled female mouse hypothalamic homogenate; eluates spotted and read by reverse phase protein array (RPPA) with 212 antibodies, normalised to PR signal; a hit has a ratio R5020/no ligand ≥2 and p < 0.05; only the target purified.

For test [2] the target is unchanged. Description: pull-down; GST-PRA or GST-PRB bound to R5020, immobilised on glutathione Sepharose 4B, incubated 1 h at 4°C with pooled female mouse hypothalamic homogenate; eluted by boiling in Laemmli buffer; Western blot; only the target purified. (A western blot detects proteins with antibodies after separation by electrophoresis.)
Test [3] shares this target. The test is described as follows: condition: only in the absence of ligand (unliganded GST-PR); pull-down; unliganded GST-PRA or GST-PRB, immobilised on glutathione Sepharose 4B, incubated 1 h at 4°C with pooled female mouse hypothalamic homogenate; eluted by boiling in Laemmli buffer; Western blot; only the target purified.

These are yes or no findings as the source states them, for the method shown. Binding seen in cells or lysates may run through a third protein. Some results given as binding are weak or reduced against the parent protein; the word gives no strength. For some assays here: Sequences can lack the tags named with a protein.

“Autophagy related protein 12 (from UniProt Q9CQY1 1-141)”: in test [1], the binding result is “no binding”.
For the molecule “Autophagy-related protein 3 (from UniProt Q9CPX6 1-314)”, in test [1], the binding result was “no binding”.
Consider “Epidermal growth factor receptor (from UniProt Q01279 25-1210)”, for which the binding entry in test [1] is on record as “no binding”.
Regarding “Forkhead box O1 (from UniProt Q9R1E0 1-652)”, the values for the binding result in test [2], in test [3] and in test [1] were “binds”, “no binding” and “binds”, respectively.
In the case of “Integrin-α5 (from UniProt P11688 45-1053)”, in test [1], the binding result is recorded as “no binding”.
In the case of “Steroid-receptor coactivator-1 (from UniProt P70365 1-1447)”, the binding result is “binds” in test [2], “no binding” in test [3] and “binds” in test [1].
With “synapsin-IIa (from UniProt Q64332-1 1-586)”, the binding result in test [2] was “binds”.
As to “synapsin-IIb (from UniProt Q64332-2 1-479)”, in test [2], the binding result is “binds”.

B1: BCL2 antagonist/killer 1 (protein, UniProt O08734 1-209)
chain: MASGQGPGPPKVGCDESPSPSEQQVAQDTEEVFRSYVFYLHQQEQETQGAAAPANPEMDNLPLEPNSILGQVGRQLALIGDDINRRYDTEFQNLLEQLQPTAGNAYELFTKIASSLFKSGISWGRVVALLGFGYRLALYVYQRGLTGFLGQVTCFLADIILHHYIARWIAQRGGWVAALNFRRDPILTVMVIFGVVLLGQFVVHRFFRS
Turning to B1, the binding entry in test [1] is recorded as “binds”.

B2: Cyclin C (protein, UniProt Q62447 1-283)
chain: MAGNFWQSSHYLQWILDKQDLLKERQKDLKFLSEEEYWKLQIFFTNVIQALGEHLKLRQQVIATATVYFKRFYARYSLKSIDPVLMAPTCVFLASKVEEFGVVSNTRLIAATTSVLKTRFSYAFPKEFPYRMNHILECEFYLLELMDCCLIVYHPYRPLLQYVQDMGQEDVLLPLAWRIVNDTYRTDLCLLYPPFMIALACLHVACVVQQKDARQWFAELSVDMEKILEIIRVILKLYEQWKNFDERKEMATILSKMPKPKPPPNSEGEQGPNGSQNSSYSQS
In the case of B2, in test [1], the binding result was “no binding”.
